Data reported in publication PMC12040169 (PLOS Biology, 2025).
The other results are listed elsewhere or left out.

system: T1, C. trachomatis L2/434/Bu expressing GFP (CTL2-GFP); set-up: species or system HeLa; C. trachomatis total inclusion area by high-content imaging, normalised to DMSO; conditions: total inclusion area; 28.5 h, 10 µM; inhibitor
T1 construct: L2/434/Bu GFP intracellular growth in HeLa cells
Procedure, shortened: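 High-content images of fixed, Hoechst-stained infected cultures supply inclusion area and count (growth) plus nuclei number (viability), complementing bulk GFP/resorufin fluorescence. MIC determination is unchanged from the primary assay.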

Compound	% of control remaining
COc1cc(-c2nccnc2NCc2ccco2)cc(OC)c1OC [CBK037072]	104.84
CC(=O)c1ccc(NS(=O)(=O)c2cc(C(=O)Nc3ccccc3C(=O)O)ccc2Br)cc1 [CBK263203]	88.7077
O=C(O)c1[nH]c2ccccc2c1C(c1cc(Cl)cc([N+](=O)[O-])c1O)c1c(C(=O)O)[nH]c2ccccc12 [CBK267814]	70.842
CCCC(=O)N1CCC([C@@H]2C[C@H](C(F)F)n3nc(C)cc3N2)CC1 [CBK284724]	99.721
O=C(Nc1ccc(=O)n2c1[C@@H]1C[C@@H](CN(C(=O)Nc3ccc(F)cc3)C1)C2)c1ccccc1 [CBK288715]	97.4769
Cc1c(NC(=O)C2CCN(c3ccccc3Cl)C2)nnn1C (centres unmarked) [CBK306263]	90.2371
O=C(COc1ccc(S(=O)(=O)Nc2ccc(Cl)cc2)cc1)Nc1ccccc1F [CBK268427]	125.132
CC(CCc1ccccc1)NC(=O)CN1CCOCC1 (centres unmarked) [CBK268994]	107.914
Cc1cccc(C)c1NC(=O)C(C#N)C(=O)c1nn(-c2ccccc2)c2c1CSc1ccccc1-2 (centres unmarked) [CBK017678]	105.187
CCC(C)C(=O)N1CCC(c2nnc3n2CCCCC3)CC1 (centres unmarked) [CBK282260]	94.4428
COc1ccc(NC(=O)CCN2C(=O)c3ccccc3S2(=O)=O)cc1 [CBK265863]	78.5441
Cc1cc(C[C@@H]2COC[C@H]2NCc2cccs2)on1 [CBK282999]	84.049
COc1ccccc1CCCN1CCC2(C1)c1[nH]c3ccccc3c1CCN2S(C)(=O)=O (centres unmarked) [CBK074095]	66.7825
Cc1ccc(S(=O)(=O)NC(CC(=O)O)c2ccccc2)cc1 (centres unmarked) [CBK261307]	100.398
CCc1ccc(CNC(=O)Cn2nnc(-c3ccc(CN4CCC(C)CC4)nc3SC)n2)cc1 [CBK156205T]	77.4163
OCCSc1ccc(C(F)(F)F)cn1 [CBK028739]	10.4296
CC(=O)NC1CCN(CC2(c3ccccc3F)CCCC2)CC1 [CBK282591]	114.675
Oc1c(-c2ccc(Cl)cc2)c2nc3ccccc3nc2c2ccccc12 [CBK261628]	114.218
O=C(COc1ccc2ccccc2c1Br)NCCN1CCOCC1 [CBK267391]	126.877
CNCCc1ccccc1Sc1ccccc1 [CBK027155G]	37.7525
O=c1oc(-c2ccoc2)nn1Cc1ccccc1F [CBK283726]	100.07
OC(CNC1CCN(Cc2ccccc2)CC1)COc1ccc2c(c1)OCO2 (centres unmarked) [CBK074645]	102.055
COc1ccc([C@]23CN(C)C[C@H]2CCN(C(=O)Nc2cccc(Cl)c2)C3)cc1OC [CBK075104T]	99.5797
OC(CNCCc1ccccc1)COc1c(Br)cccc1Br (centres unmarked) [CBK003071]	64.0499
CN(C)Cc1cc(C[C@@H]2C[C@H](NCc3ccccn3)C2(C)C)no1 [CBK289313]	114.991
CCCC1(C)CCCN(Cc2nnnn2-c2ccc(S(C)(=O)=O)cc2)C1 (centres unmarked) [CBK304133]	57.6337
O=C1N[C@H]2CCCN(C(=O)c3cncs3)[C@H]2CCCCCOc2ccccc21 [CBK292106]	90.8789

Compound	% of control remaining
Cc1ccc(S(=O)(=O)N2CCC3(CC2)OCCO3)cc1Cl [CBK043731]	88.7288
CC(C)NC(=O)[C@H]1O[C@H](CCN2CCN(c3ccc(F)cc3)CC2)CC[C@@H]1O [CBK288721]	85.8173
CC(=O)c1ccc(-n2ncc(-c3ccc(F)cc3)n2)cc1 [CBK112889]	99.865
CS(=O)(=O)N/N=C/c1ccc(Cl)cc1Cl [CBK026420]	90.7411
Cc1cccc2sc(NC(=O)C3COc4ccccc4O3)nc12 (centres unmarked) [CBK287367]	88.4999
CCC(=O)Nc1ccc(-c2csc(N3CCC(C)CC3)n2)cc1 [CBK306490]	90.0369
COc1ccc(CNC(N)=O)cc1 [CBK013588]	109.602
CC1=NN(c2ccc(S(=O)(=O)O)cc2)C(=O)/C1=C/C=C/c1c(C)nn(-c2ccc(S(=O)(=O)O)cc2)c1O [CBK278317K]	91.1819
Nc1ccc(C(=O)Oc2ccc(Oc3ccccc3)cc2)cc1 [CBK083570]	114.548
O=C(NC(Cc1ccccc1)C(=O)O)c1ccc(Cl)cc1 (centres unmarked) [CBK264677]	117.782
Cn1ncc2c1CCCN(C(=O)Cc1ccc3c(c1)CCCO3)C2 [CBK282253]	98.5873
COC(=O)c1c(C)c(C(C)=O)n(C)c1C [CBK012459]	67.8917
Cc1nc(C(=O)N(C)C(C)c2cc3ccccc3o2)nn1-c1ccc(F)cc1 (centres unmarked) [CBK296657]	101.163
COc1ccc(OC)c(NC(=S)NCCN2CCOCC2)c1 [CBK264927]	104.943
CNC(=O)c1ccc(-c2ccc(CNC(=O)CCc3cccc(Cl)c3)cc2)nc1C [CBK286015]	92.2064
O=C(Nn1cnnc1)c1ccccc1CCc1ccccc1 [CBK268578]	95.323
COCCN(Cc1cnn(C)c1)C(=O)Cc1ccccn1 [CBK306576]	52.0958
Cc1cccc(C(=O)N2CCN(Cc3nc4ccccc4[nH]3)CC2)c1 [CBK304399]	104.496
COC(=O)Cn1c(=N)n(CCN2CCOCC2)c2ccccc21 [CBK262447B]	108.958
Cc1cc(C(=O)Nc2cc(-c3nc4ncccc4o3)ccc2Cl)ccc1[N+](=O)[O-] [CBK268700]	92.2308
O=C1CCC(=O)N1CCn1c(=O)n(S(=O)(=O)c2cccc(Cl)c2)c2ccccc21 [CBK106493]	93.5548
Cc1nn2cc(CNC(=O)CN3CCOc4ccccc4C3)nc2s1 [CBK306921]	82.0395
O=C(O)c1ccc(CNCCc2ccccc2)cc1 [CBK287215]	94.3232
CN(Cc1cnc(-c2ccncc2)cn1)C1CCN(C(=O)OC(C)(C)C)CC1 [CBK172979]	62.1485
Cc1c(C(=O)N2CCN(C3CCN(C)CC3)CC2)nnn1-c1cccc(C(F)(F)F)c1 [CBK149088]	100.073
O=C(Cc1ccccc1)Nc1ccc(NC(=O)c2ccc(-c3ccccc3)cc2)cc1 [CBK268821]	102.807
O=c1[nH]c2ncc(-c3ccsc3)nc2n1-c1ccc2[nH]ccc2c1 [CBK064650]	94.0131

Compound	% of control remaining
Clc1ccc2c(c1)CCC(NCC1COc3ccccc3O1)C2 (centres unmarked) [CBK013077C]	70.0616
Cc1ccc(-c2nnc3c4ccccc4c(C)nn23)cc1S(=O)(=O)NC(C)c1ccccc1 (centres unmarked) [CBK266715]	116.469
O=C1NCCCC12CCN(Cc1ccccc1N1CCCCC1)CC2 [CBK284878]	99.6943
CC(NC(=O)c1cc(C(F)(F)F)n(C)n1)c1cccnc1 (centres unmarked) [CBK282203]	96.9507
CC(C)n1c(=O)n(C(=O)c2ccco2)c2cccnc21 [CBK283856]	95.5591
O=C(NCCc1cccs1)Nc1ccccc1 [CBK269917]	92.4906
Cc1cc(C(=O)NC(C)c2ccccn2)c2ccccc2n1 (centres unmarked) [CBK281826]	69.9229
O=C(N1CCC(Oc2nccnc2OCc2ccc(Cl)cc2F)CC1)C(F)(F)F [CBK164142]	68.2849
COc1cccc(COc2nccnc2-c2ccc(C)cc2C)c1OC [CBK106995]	78.8784
CC(=O)N1CCN(C(=O)Cn2ccc3ccccc32)CC(O)C1 (centres unmarked) [CBK307552]	134.248
COc1ccc(CN2CCc3cc(OC)c(OC)cc3C2c2ccccc2)cc1CO (centres unmarked) [CBK286358]	95.1937
COc1ccc(CN2Cc3nc[nH]c3C[C@H]2C(=O)NCc2ccccc2)c2ccccc12 [CBK288976]	88.0283
O=[N+]([O-])c1cccc(CN2CCC(N3CCN(Cc4ccccc4)CC3)CC2)c1 [CBK264609G]	94.7249
Cc1cc2nc(-c3cc(NC(=O)/C=C/c4cccc([N+](=O)[O-])c4)ccc3O)oc2cc1C [CBK263438]	91.3325
Cc1nn(CC(C)C(=O)N2CCCC(CN(C)C)C2)c(C)c1Cl (centres unmarked) [CBK282186]	101.773
CCc1cccc2c(/C=C3/SC(=S)N(CC(=O)O)C3=O)c[nH]c12 [CBK264937]	101.088
N#Cc1cnn2c(O)cc(Cc3ccccc3)nc12 [CBK287942]	79.4164
Nc1nc2c(nc(OCc3ccccc3)n2C2OC(CO)C(O)C2O)c(=O)[nH]1 (centres unmarked) [CBK201247]	117.983
CC(Oc1ccc(/C=N/n2cnnc2)cc1)C(=O)O (centres unmarked) [CBK263927]	98.5163
O=C(CCN1CCCCC1)NCC1OCCc2ccccc21 (centres unmarked) [CBK013619]	96.4302
O=[N+]([O-])c1ccc(CN2CCC(Oc3nccnc3OCCN3CCOCC3)CC2)cc1 [CBK082923T]	112.073
CCCCCOc1ccc(Nc2ccc(-c3cccc(Cl)c3Cl)cn2)cc1 [CBK036856]	80.7747
CCCNC(=O)c1ccc(NC(=O)NC(CC)c2ccnn2C)c(C)c1 (centres unmarked) [CBK307608]	72.2542
COc1ccc(C)cc1NC(=O)NC1CCN(Cc2ccccc2)CC1 [CBK267095]	98.6047
Cc1ccc(-n2ncc3c(=O)n(CC(=O)NC4CCCCC4)cnc32)cc1 [CBK287536]	106.434
O=C(O)C1CCN(C(=O)CCC(=O)N2CCN(c3ccccc3)CC2)CC1 [CBK286896]	93.4664
